Our source for the displacement values is PubChem BioAssay AID1240 (Sanford-Burnham Center for Chemical Genomics, 2008).

The structures appear in SMILES notation. The whole screen tested about 50,000 compounds, of which about 800 (1.6%) showed an effect of 50% or more. This is one part of the list.

The target of the assay is Bcl-2-like protein 10 (Homo sapiens) (UniProt Q9HD36). The assay is described as follows: Phenotype converters, Bcl-B/TR3 peptide binding displacement, primary biochemical FP (AID 1240).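 Note: 0% = Bcl-B with tracer peptide and DMSO and 100% = tracer peptide lacking Bcl-B.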 The note with it: GST-Bcl-B / FITC-TR3 peptide fluorescence polarization; stronger effect = higher value; compound at 3.75 mg/L.
Sequence of UniProt Q9HD36 (Q9HD36 whole entry, looked up): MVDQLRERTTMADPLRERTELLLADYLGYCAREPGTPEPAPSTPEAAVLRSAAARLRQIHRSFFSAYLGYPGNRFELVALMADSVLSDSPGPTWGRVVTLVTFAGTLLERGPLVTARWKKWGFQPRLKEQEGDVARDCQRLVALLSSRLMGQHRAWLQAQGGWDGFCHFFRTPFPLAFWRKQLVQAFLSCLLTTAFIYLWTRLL
As to `O=[N+]([O-])c1ccc(NCCNC(=S)Nc2ccc(Cl)cc2)nc1`, the displacement is -3.1%.

As to `COc1ccc(S(=O)(=O)N(CC(=O)NCc2ccc(Cl)cc2)c2cc(C)cc(C)c2)cc1OC`, the displacement is -1.6%.

`N/C(=N\OC(=O)c1ccc(F)cc1)c1ccc(Br)cc1`: the displacement is -18.5%.

For `CC(C)(Cc1ccc(O)cc1)NC(=O)Cc1ccccc1`, the displacement worked out at 9.2%.

Take `CC1=C(C(=O)Nc2ccccc2)C(c2ccncc2)C(C#N)=C(SCC(N)=O)N1` (stereo not given): the displacement was -3.8%.

As to `Cc1cc(NC(=O)C(c2ccccc2)c2ccccc2)no1`, the displacement turned out to be 14.9%.

For the molecule `COc1cc(C2NC(=S)NC(C)=C2C(=O)Nc2cccc(C)c2)ccc1O` (stereo not given), the displacement came out at 27.6%.

Regarding `O=C1CC(=O)NC(SCC(=O)Nc2nc3ccccc3s2)=N1`, the displacement was determined as 12.7%.

Regarding `CCOC(=O)c1ccc2[nH]c3c(c2c1)CCCC3=O`, the displacement was 5.4%.

Take `O=C(CN1C(=O)/C(=C/c2cccc(Br)c2)SC1=S)NC1=NCCS1`: the displacement worked out at 10.5%.

As to `Cc1cccc(OCC(=O)N/N=C/c2ccc([N+](=O)[O-])s2)c1`, the displacement was 12.6%.

Turning to `CCCOc1cccc(C(=O)Nc2cccc(NC(=O)c3cccc(Cl)c3)c2)c1`, the displacement is -5.6%.

As to `N=c1nc(N)nc2n1NC(c1ccc(Cl)cc1)=CS2`, the displacement is -1%.

Turning to `CC12CN3CCN(C1)CC(C)(C3)C2NC(=S)Nc1ccccc1` (stereo not given), the displacement came out at 7.1%.

As to `O=C(CCCN1C(=O)c2cccc3cccc(c23)C1=O)NC1CCS(=O)(=O)C1` (stereo not given), the displacement turned out to be 13.6%.

`CCOC(=O)NC(NCc1ccco1)(C(F)(F)F)C(F)(F)F`: the displacement is -0.9%.

Consider `CC1(C(=O)O)CCC(C(=O)Nc2cccc(F)c2)C1(C)C` (stereo not given), for which the displacement came out at 5.8%.

As for `O=C(NN1CCOCC1)c1cc2ccccc2oc1=O`, the displacement is 5.7%.

As to `Cc1ccc2nc(-c3ccc(NC(=O)c4ccc(S(=O)(=O)N5CCCC5)cc4)cc3)sc2c1`, the displacement was -1.5%.

For the molecule `O=C(O)c1c(Br)c(Br)c(Br)c(Br)c1C(=O)N1CCOCC1`, the displacement was -2.3%.

In the case of `Cc1ccc(S(=O)(=O)ON=C2C=CC(=O)C=C2)cc1`, the displacement came to 10.5%.

`C=CCNC(=O)CCCOc1ccc(Cl)cc1Cl`: the displacement is 3.8%.

Turning to `CC1(C)CC(NC(=S)Nc2ccc(F)cc2)CC(C)(C)N1`, the displacement was determined as 10.3%.

On to `COc1ccc(OC(C)C(=O)NCCc2ccccc2)cc1` (stereo not given), for which the displacement was determined as 11.9%.

`CCCCOC(=O)c1ccc(NC(=O)c2ccc(-c3cccc([N+](=O)[O-])c3)o2)cc1`: the displacement was 11.8%.

Consider `Cc1ccccc1Nc1nc(-c2cc3ccccc3oc2=O)cs1`, for which the displacement is 11.2%.

Turning to `CC(C)c1ccc(/C=C/C(=O)NCc2cccnc2)cc1`, the displacement was -10.4%.

In the case of `Cc1ccc(-c2c(C)n([O-])c3c([n+]2=O)CCC3)cc1`, the displacement is -10.4%.

Turning to `CC(C)(C)c1ccc(C(=O)Nc2ncc(Cc3ccc(F)cc3)s2)cc1`, the displacement is -24.8%.

Turning to `Cc1ccc(Cc2cnc(NC(=O)c3ccc(Cl)cc3)s2)cc1`, the displacement came to 15.2%.

`CCOC(=O)C1=C(O)/C(=C/c2ccc(O)c(OC)c2)SC1=Nc1cccc(Cl)c1`: the displacement is -6.4%.

In the case of `Cc1cc(NC(=O)c2ccc(C)c(C)c2)no1`, the displacement turned out to be 6.7%.

Turning to `Clc1ccc(-c2ccc(/C=N/Nc3nncc(-c4ccccc4)n3)o2)cc1`, the displacement is -2.3%.

With `CCOC(=O)C1=C(O)/C(=C/c2ccc(N(CC)CC)cc2)SC1=Nc1ccc(OC)cc1`, the displacement was -11.5%.

Take `CC(=O)Nc1ccccc1NS(=O)(=O)c1ccccc1`: the displacement is -1.9%.

Take `CC(=O)Nc1ccccc1NC(=O)c1cccc(I)c1`: the displacement turned out to be 6.4%.

Consider `Cc1ccc(-c2ccccc2)n1-c1ccc(O)c(C(=O)O)c1`, for which the displacement came out at 20.4%.

Regarding `Cc1nc2cc(N=Cc3cc(C(C)(C)C)c(O)c(C(C)(C)C)c3)ccc2n1C`, the displacement is 0.7%.

In the case of `O=[N+]([O-])c1ccc(OC/C=C2\Oc3c(Cl)cc(Cl)cc3C2N2CCOCC2)cc1` (stereo not given), the displacement is -1.2%.

For `C/C(=N\NS(=O)(=O)c1ccc(Cl)cc1)C1CC2CCC1C2` (stereo not given), the displacement stood at 9.5%.

In the case of `CCOc1ccc(NC(=O)C(C)Oc2ccc(OC)cc2)cc1` (stereo not given), the displacement was -3.9%.

Consider `CCOc1ccccc1NC(=O)CSc1nc2ccccc2o1`, for which the displacement was -10.1%.

Regarding `COc1ccccc1N1C(=O)c2cccc3c(N4CCCC4)ccc(c23)C1=O`, the displacement amounted to 102%.

Take `O=C(c1ccc(Cl)c([N+](=O)[O-])c1)N1CCc2ccccc2C1`: the displacement was 4.1%.

As for `CC(=O)c1cccc(Nc2nc(-c3cccs3)cs2)c1`, the displacement is -9.1%.

For `Cc1csc(NC(=O)c2cc(-c3cccc(Br)c3)nc3ccccc23)n1`, the displacement is -6.5%.

In the case of `CCc1ccc(N2C(=O)CSC2c2ccc(Cl)cc2Cl)cc1` (stereo not given), the displacement is 9.8%.

Turning to `CCOC(=O)C(=Cc1ccc(-c2cccc(Cl)c2Cl)o1)C(=O)OCC`, the displacement was -7.2%.

In the case of `CCOC(=O)c1ccc(NC(=O)CN(c2ccc(OC)cc2)S(C)(=O)=O)cc1`, the displacement is -10.2%.

For the molecule `O=[N+]([O-])c1cccc(/C=N/Nc2c(Cl)cc(Cl)cc2Cl)c1`, the displacement came to 8.9%.

For the molecule `O=C(NCCN1CCOCC1)c1cc(-c2cccc(Br)c2)nc2ccccc12`, the displacement is -7.6%.

In the case of `COc1cc2c(cc1OC)C(c1ccc(Br)cc1)N(C1CC(=O)N(c3ccccc3)C1=O)CC2` (stereo not given), the displacement was 10.4%.

Take `CC1(C)Cc2ccccc2-c2c[nH]c(=O)n21`: the displacement turned out to be 0.8%.

Regarding `CC(=O)CC(=O)Nc1ccc(C(C)C)cc1`, the displacement came out at 4%.

For `O=C(O)COc1c(Cl)cc(/C=C2\C(=O)NC(=O)N(c3ccccc3)C2=O)cc1Cl`, the displacement was -2.5%.

`CCOC(=O)c1c(-c2ccccc2)csc1NC(=O)c1sc2cc(F)ccc2c1Cl`: the displacement was -2.4%.

On to `O=C(NCc1cccs1)c1nc2nc(-c3ccccc3)cc(C(F)(F)F)n2n1`, for which the displacement was found to be 3%.

On to `COc1ccc(C(=O)Nc2cc3nn(-c4ccc(OC)cc4)nc3cc2C)cc1`, for which the displacement was determined as 2.2%.

Regarding `COc1cccc(C(=O)N2CCN(C(=O)COc3ccccc3)CC2)c1`, the displacement turned out to be 16.5%.

Regarding `O=C(/C=C/c1ccc(NC(=O)c2cccs2)cc1)c1ccco1`, the displacement was 11.8%.

As for `O=C(NC(=S)Nc1ccc(NC(=O)c2ccco2)cc1)c1ccco1`, the displacement was determined as 10.7%.

`Cc1ccccc1C(=O)NNC(=O)Cc1ccccc1`: the displacement is -3.5%.

Regarding `Cc1cc([N+](=O)[O-])ccc1NC(=O)c1ccccc1`, the displacement is -2.8%.

Turning to `Cc1ccc(C(=O)O/N=C(\N)Cc2cccc3ccccc23)cc1[N+](=O)[O-]`, the displacement worked out at 42.2%.

As to `Cc1cc2c(cc1C)-c1nnc(-c3ccco3)n1C(C)(C)C2`, the displacement came out at 5.4%.

Turning to `O=C1CC(c2ccccc2)CC2=C1C(c1cccc(Cl)c1Cl)Nc1ccccc1N2` (stereo not given), the displacement is -6%.

On to `CCOC(=O)C1=C(C)N=C2SCC(=O)N2C1c1ccc(F)cc1` (stereo not given), for which the displacement was 22%.

In the case of `CC(C)(C)C1CCc2c(sc(NC(=O)C3CCCCC3C(=O)O)c2C(N)=O)C1` (stereo not given), the displacement is -7.8%.

On to `CCOc1ccc(N(CC(=O)Nc2ccc(Cl)cc2)S(=O)(=O)c2ccc(SC)cc2)cc1`, for which the displacement amounted to 2.2%.

For the molecule `O=C(/C=C/c1ccccc1)NC(=S)Nc1ccc(F)cc1`, the displacement came to 2.7%.

In the case of `Cc1ccc2[nH]c(=O)c(C(=O)/C=C/c3ccccc3Cl)c(-c3ccccc3)c2c1`, the displacement worked out at 21.3%.

For `COc1ccc(CC(=O)N2CCN(c3ccccn3)CC2)cc1OC`, the displacement is 29%.

Consider `CSC1=C(C#N)C(c2ccccc2)C=C(c2ccccc2)N1` (stereo not given), for which the displacement is 13.5%.

As for `Cc1onc(-c2c(Cl)cccc2Cl)c1C(=O)n1c(C)nc2ccccc21`, the displacement is -4.2%.

For the molecule `O=C1CC(c2ccc(Cl)cc2)CN1C(=O)Nc1ccccc1` (stereo not given), the displacement came out at 4.8%.

For `CCCOc1ccc(/C=C2\SC(=S)N(NC(=O)c3ccccc3Cl)C2=O)cc1OC`, the displacement is 41.4%.

`CCc1ccccc1NC(=O)c1c(NC(=O)c2cccs2)sc2c1CCCC2`: the displacement is -9.2%.

As to `Cc1ccc2c(c1)C(C)CC(C)(C)N2C(=O)Nc1ccccc1` (stereo not given), the displacement was -0.4%.

Take `Cc1nn(C2CCCCC2)c(N)c1-c1ccccc1`: the displacement is -10.1%.

As for `Cc1ccccc1/C=C(/C#N)c1nc(-c2cc3ccccc3oc2=O)cs1`, the displacement turned out to be 4.7%.

As for `COc1ccc(Cl)cc1C(=O)Nc1ccccc1F`, the displacement was -5.7%.

Turning to `CC(C)(C)C1CCC2(CC1)NNC(=S)NN2`, the displacement came out at 13.2%.

`O=C(Nc1ccc(I)cc1Cl)c1ccc2ccccc2c1`: the displacement stood at 3.4%.

`CCCc1cc(=O)oc2cc(OC(C)C(C)=O)ccc12` (stereo not given): the displacement is -0.7%.

In the case of `c1coc(CN2CCN(Cc3cccc4ccccc34)CC2)c1`, the displacement was -4.4%.

Regarding `COc1ccc2oc(=O)c(C(=O)Nc3cccc(Cl)c3)cc2c1`, the displacement was determined as 16.4%.

As to `Cc1ccc(C(=O)NC(NC(=S)Nc2ccccc2)C(Cl)(Cl)Cl)cc1` (stereo not given), the displacement came out at 10.8%.

With `CCc1nccn1S(=O)(=O)c1cc(Cl)ccc1Br`, the displacement turned out to be 9.1%.

In the case of `CCOC(=O)c1cnc2cc(OC)ccc2c1Cl`, the displacement is -4.4%.

As to `Cc1cn(S(=O)(=O)c2ccc(Br)cc2)cn1`, the displacement stood at 7.7%.

For `COc1ccc(OC)c(NC(=O)CN(c2ccc(C)cc2)S(=O)(=O)c2ccc(F)cc2)c1`, the displacement is -4.9%.

As to `O=C(CCc1ccccc1)NCCOc1ccccc1`, the displacement was 12.8%.

For the molecule `COc1ccccc1N1CCN(C2CC(=O)N(c3ccc(F)cc3)C2=O)CC1` (stereo not given), the displacement was -7.9%.

As for `CCOc1ccc(C(=O)Nc2ccc3nn(-c4ccc(OC)cc4)nc3c2)cc1Cl`, the displacement stood at 10.5%.

In the case of `Cc1cc2nc(-c3ccc(C)c(NC(=O)/C=C/c4ccco4)c3)oc2cc1C`, the displacement was -5.3%.

Turning to `O=C1C(Nc2ccccc2)=CC(c2ccc(Cl)cc2)N1c1ccccc1` (stereo not given), the displacement is -32%.

For the molecule `O=C(NC1C2CC3CC(C2)CC1C3)c1ccccc1F` (stereo not given), the displacement was determined as 4.9%.

With `O=c1/c(=C\c2cc(Cl)c(O)c(Cl)c2)sc2nc3ccccc3n12`, the displacement worked out at 12.6%.

Turning to `Cn1ccnc1SCC(=O)c1ccc(-c2ccccc2)cc1`, the displacement was -0.3%.

Turning to `COc1cccc(C2CC(=O)Nc3c2ccc2ccccc32)c1OC` (stereo not given), the displacement was -3.3%.

`O=C(COc1ccccc1Cl)NNC(=O)c1ccccn1`: the displacement was -13%.

As for `Cc1ccccc1N=C(NOCc1ccccc1)c1nonc1N`, the displacement was determined as 15%.

Take `O=c1nc(/C=C/c2ccc(-c3ccc([N+](=O)[O-])cc3Cl)o2)cc(C(F)(F)F)[nH]1`: the displacement was 11.9%.

Regarding `COC(=O)c1coc(-c2ccc(OC)cc2)c1C(=O)OC`, the displacement was -3.9%.

In the case of `O=C(c1ccc([N+](=O)[O-])cc1)N1CCSC1c1ccccc1Cl` (stereo not given), the displacement was -0.9%.

Take `COC(=O)C1=C(C)N=c2s/c(=C\c3ccc4c(c3)OCO4)c(=O)n2C1/C=C/c1ccccc1` (stereo not given): the displacement worked out at 27.3%.

`CCOC(=O)c1sc(NC(=O)c2nn3c(c2Cl)NC(c2cccs2)CC3C(F)(F)F)c(C(=O)OCC)c1C` (stereo not given): the displacement turned out to be 8.1%.

With `O=C(COc1ccc(Cl)cc1)Nc1ccc(Cl)cc1`, the displacement was 15%.

Take `COC(=O)C1=C(C)NC2=C(C(=O)c3ccccc32)C1c1cc(OC)c(OC)c(OC)c1` (stereo not given): the displacement came to 2.8%.

As to `COc1ccc(C)cc1NC(=O)C1C2C=CC(O2)C1C(=O)O` (stereo not given), the displacement was determined as 2.3%.
